# Paper PMC4336329 (PLoS ONE, 2015)
# Hit rate of the full screen: of about 310,000 compounds, about 2,200 (0.71%) showed an effect of 50% or more. Effects have a minus sign here. Some of the results follow.
# Biological target: human ether-à-go-go-related gene (hERG) potassium channel (human, UniProt Q12809)
# Assay: primary screen, population patch clamp on CHO cells stably expressing hERG
# Chain of human ether-à-go-go-related gene (hERG) potassium channel (Q12809 whole entry, looked up): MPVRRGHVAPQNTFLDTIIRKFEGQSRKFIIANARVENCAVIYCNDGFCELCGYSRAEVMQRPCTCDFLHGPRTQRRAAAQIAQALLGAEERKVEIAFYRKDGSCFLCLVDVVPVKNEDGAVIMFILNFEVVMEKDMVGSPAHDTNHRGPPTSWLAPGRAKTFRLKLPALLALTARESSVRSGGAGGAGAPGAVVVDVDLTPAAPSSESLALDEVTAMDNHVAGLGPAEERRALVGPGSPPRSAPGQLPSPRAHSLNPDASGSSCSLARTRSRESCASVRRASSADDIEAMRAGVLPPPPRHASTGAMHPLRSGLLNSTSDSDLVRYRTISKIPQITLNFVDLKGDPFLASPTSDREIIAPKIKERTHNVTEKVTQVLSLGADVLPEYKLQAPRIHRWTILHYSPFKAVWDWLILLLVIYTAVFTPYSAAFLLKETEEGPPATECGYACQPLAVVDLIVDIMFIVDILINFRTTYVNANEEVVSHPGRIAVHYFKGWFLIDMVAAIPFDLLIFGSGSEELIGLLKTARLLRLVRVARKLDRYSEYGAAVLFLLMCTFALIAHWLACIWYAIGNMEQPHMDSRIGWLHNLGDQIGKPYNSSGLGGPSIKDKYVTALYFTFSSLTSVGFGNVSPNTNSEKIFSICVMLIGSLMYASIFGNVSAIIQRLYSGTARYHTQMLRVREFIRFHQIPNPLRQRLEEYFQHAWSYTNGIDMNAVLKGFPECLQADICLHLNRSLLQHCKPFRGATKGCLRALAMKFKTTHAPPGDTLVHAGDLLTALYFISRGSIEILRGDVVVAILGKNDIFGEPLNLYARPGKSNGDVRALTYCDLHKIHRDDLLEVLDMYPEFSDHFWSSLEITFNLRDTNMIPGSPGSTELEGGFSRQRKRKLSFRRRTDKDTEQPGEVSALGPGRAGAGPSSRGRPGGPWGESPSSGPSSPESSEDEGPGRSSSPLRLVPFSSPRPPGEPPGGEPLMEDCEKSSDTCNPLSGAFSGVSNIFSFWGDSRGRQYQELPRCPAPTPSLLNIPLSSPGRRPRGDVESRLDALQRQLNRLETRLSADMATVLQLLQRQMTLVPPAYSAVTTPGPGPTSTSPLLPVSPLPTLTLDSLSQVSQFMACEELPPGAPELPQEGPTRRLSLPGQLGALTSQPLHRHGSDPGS
row,Compound,"hERG current change (%, negative = inhibition) at 1uM"
1,COc1cc(C2=NOC(C(=O)N3CCCc4ccccc43)C2)cc(OC)c1OC (stereo not shown),10.3%
2,CC(C)(C)OC(=O)NCC12C=CC(O1)C1C(=O)N(Cc3ccccc3)C(=O)C12 (stereo not shown),10.8%
3,Cc1c(Cl)c([N+](=O)[O-])nn1CCCC(=O)NC1CCCCC1,11.7%
4,CC(C)c1ccc(N2C(=O)CSC23C(=O)N2CCCc4cccc3c42)cc1 (stereo not shown),19.9%
5,CC1CN(c2nn3c(=O)c4ccccc4nc3c3ccccc23)CC(C)O1 (stereo not shown),-0.465%
6,CCCCN1C2CCCC1CC(NC(=O)C1CCCCC1)C2 (stereo not shown),0.0034%
7,Cc1ccc(CNC(=O)COC(=O)c2cc(C)oc2C)cc1,13.1%
8,Cc1ccc(N(C(=O)c2csnn2)C(C(=O)NC2CCCCC2)c2cccnc2)cc1 (stereo not shown),0.643%
9,COc1ccc(S(=O)(=O)N(CC(=O)NCc2ccco2)c2ccc(C)cc2)cc1OC,14.7%
10,O=C(CSc1n[nH]c(-c2ccco2)n1)Nc1ccccc1,-4.85%
11,CCN(CC)S(=O)(=O)c1ccc2c(c1)N(CC(=O)NCCN1CCOCC1)C(=O)CO2,18.8%
12,Cl.Clc1ccccc1CNC1CN2CCC1CC2 (stereo not shown),11.7%
13,CCCOC(=O)c1[nH]c2c(c1C)C(=O)CC(c1cc(OC)c(OC)c(OC)c1)C2 (stereo not shown),7.64%
14,O=C(c1ccc(Cn2c(=O)[nH]c3ccccc3c2=O)cc1)N1CCN(c2ccc(Cl)cc2)CC1,5.43%
15,COC(=O)C(CC(C)C)NC(=O)CNC(=O)c1ccccc1C (stereo not shown),7.11%
16,CCC1CCCCN1C(=O)CSc1nc(N)cc(N)n1 (stereo not shown),19.4%
17,Cc1cccc(NC(=S)N2CCN(c3ccccc3F)CC2)c1C,8.16%
18,Cc1onc(-c2c(Cl)cccc2Cl)c1C(=O)NC1CCCCC1,4.95%
19,O=C(c1ccc(F)cc1)N1CCCC(c2nc(-c3cccs3)no2)C1 (stereo not shown),12.1%
20,O=C1CCC([N+](=O)[O-])C(c2ccc(C(F)(F)F)cc2)N1 (stereo not shown),7.21%
21,OCC[C@H]1C[C@H](O)[C@@H](O)[C@]2(CCCCO2)O1,14.5%
22,Cc1cccc(N/N=C/c2ccncc2)c1,7.08%
23,COC(=O)Nc1ccc(S(=O)(=O)N(C)CC(F)(F)C(F)F)cc1,7.12%
24,CC12CCC(C(=O)N3CCN(C(c4ccccc4)c4ccccc4)CC3)(OC1=O)C2(C)C (stereo not shown),12.9%
25,O=C(Nc1ccon1)c1csc2c1CCCC2,-6.98%
